# Some of the results follow.
# B1: Gal 3 (Homo sapiens), P17931 (protein)
# chain: MADNFSLHDALSGSGNPNPQGWPGAWGNQPAGAGGYPGASYPGAYPGQAPPGAYPGQAPPGAYHGAPGAYPGAPAPGVYPGPPSGPGAYPSSGQPSAPGAYPATGPYGAPAGPLIVPYNLPLPGGVVPRMLITILGTVKPNANILDFQRGNDVAFHFNPRFNENNRRVIVCNTKLDNNWGREEIQSVFPFESGKPFKIQVLVEPDHFKVAVNDAHLLQYNHRVKKLNEISKLGISGDIDLTSASYTMI
# Experiments:
# Assay in all cases: glycan array binding signal (z-score within array); higher = stronger binding
# Details in all cases: glycan notation: IUPAC condensed, linker removed; mutation: R186I
# [1] = target: Man(b1-4)GlcNAc
# Procedure, shortened: (§1)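 From the Consortium for Functional Glycomics database, 3228 arrays were curated, keeping only those whose protein sequence was available. Binding is given as a within-array Z-score averaged across arrays sharing a protein sequence and across linkers. Negative Z-scores can be read as non-binding.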
# [2] = target: Neu5Ac(a2-3)Gal
# Procedure, shortened: as §1
# [3] = target: Neu5Ac(a2-3)Gal(b1-3)GalNAc
# Procedure, shortened: as §1
# [4] = target: Neu5Ac(a2-3)Gal(b1-3)GalNAc(b1-3)Gal(a1-4)Gal(b1-4)Glc
# Procedure, shortened: as §1
# [5] = target: Neu5Ac(a2-3)Gal(b1-3)GalNAc(b1-4)[Neu5Ac(a2-3)]Gal(b1-4)Glc
# Procedure, shortened: as §1
# [6] = target: Neu5Ac(a2-3)Gal(b1-3)GalNAc6S
# Procedure, shortened: as §1
# [7] = target: Neu5Ac(a2-3)Gal(b1-3)GlcNAc
# Procedure, shortened: as §1
# [8] = target: Neu5Ac(a2-3)Gal(b1-3)GlcNAc(b1-2)Man(a1-3)[Neu5Ac(a2-3)Gal(b1-3)GlcNAc(b1-2)Man(a1-6)]Man(b1-4)GlcNAc(b1-4)GlcNAc
# Procedure, shortened: as §1
# [9] = target: Neu5Ac(a2-3)Gal(b1-3)GlcNAc(b1-3)Gal(b1-3)GlcNAc
# Procedure, shortened: as §1
# [10] = target: Neu5Ac(a2-3)Gal(b1-3)GlcNAc(b1-3)Gal(b1-4)GlcNAc
# Procedure, shortened: as §1
# [11] = target: Neu5Ac(a2-3)Gal(b1-3)GlcNAc(b1-3)GalNAc
# Procedure, shortened: as §1
# [12] = target: Neu5Ac(a2-3)Gal(b1-3)GlcNAc6S
# Procedure, shortened: as §1
# [13] = target: Neu5Ac(a2-3)Gal(b1-3)[Fuc(a1-4)]GlcNAc
# Procedure, shortened: as §1
# [14] = target: Neu5Ac(a2-3)Gal(b1-3)[Fuc(a1-4)]GlcNAc(b1-3)Gal(b1-3)[Fuc(a1-4)]GlcNAc
# Procedure, shortened: as §1
# [15] = target: Neu5Ac(a2-3)Gal(b1-3)[Fuc(a1-4)]GlcNAc(b1-3)Gal(b1-4)[Fuc(a1-3)]GlcNAc
# Procedure, shortened: as §1
# [16] = target: Neu5Ac(a2-3)Gal(b1-3)[Neu5Ac(a2-3)Gal(b1-4)]GlcNAc
# Procedure, shortened: as §1
# [17] = target: Neu5Ac(a2-3)Gal(b1-3)[Neu5Ac(a2-6)]GalNAc
# Procedure, shortened: as §1
# [18] = target: Neu5Ac(a2-3)Gal(b1-4)Glc
# Procedure, shortened: as §1
# [19] = target: Neu5Ac(a2-3)Gal(b1-4)GlcNAc
# Procedure, shortened: as §1
# [20] = target: Neu5Ac(a2-3)Gal(b1-4)GlcNAc(b1-2)Man(a1-3)[GlcNAc(b1-2)Man(b1-4)GlcNAc(b1-2)Man(a1-6)]Man(b1-4)GlcNAc(b1-4)GlcNAc
# Procedure, shortened: as §1
# [21] = target: Neu5Ac(a2-3)Gal(b1-4)GlcNAc(b1-2)Man(a1-3)[Neu5Ac(a2-6)Gal(b1-4)GlcNAc(b1-2)Man(a1-6)]Man(b1-4)GlcNAc(b1-4)GlcNAc
# Procedure, shortened: as §1
# [22] = target: Neu5Ac(a2-3)Gal(b1-4)GlcNAc(b1-3)Gal(b1-3)GlcNAc
# Procedure, shortened: as §1
# [23] = target: Neu5Ac(a2-3)Gal(b1-4)GlcNAc(b1-3)Gal(b1-4)GlcNAc
# Procedure, shortened: as §1
# [24] = target: Neu5Ac(a2-3)Gal(b1-4)GlcNAc(b1-3)Gal(b1-4)GlcNAc(b1-3)Gal(b1-4)GlcNAc
# Procedure, shortened: as §1
# [25] = target: Neu5Ac(a2-3)Gal(b1-4)GlcNAc(b1-3)Gal(b1-4)[Fuc(a1-3)]GlcNAc
# Procedure, shortened: as §1
# [26] = target: Neu5Ac(a2-3)Gal(b1-4)GlcNAc(b1-3)GalNAc
# Procedure, shortened: as §1
# [27] = target: Neu5Ac(a2-3)Gal(b1-4)GlcNAc(b1-6)[Gal(b1-3)]GalNAc
# Procedure, shortened: as §1
# [28] = target: Neu5Ac(a2-3)Gal(b1-4)GlcNAc(b1-6)[Neu5Ac(a2-3)Gal(b1-3)]GalNAc
# Procedure, shortened: as §1
# [29] = target: Neu5Ac(a2-3)Gal(b1-4)GlcNAc6S
# Procedure, shortened: as §1
# [30] = target: Neu5Ac(a2-3)Gal(b1-4)[Fuc(a1-3)]GlcNAc
# Procedure, shortened: as §1
# [31] = target: Neu5Ac(a2-3)Gal(b1-4)[Fuc(a1-3)]GlcNAc(b1-3)Gal
# Procedure, shortened: as §1
# [32] = target: Neu5Ac(a2-3)Gal(b1-4)[Fuc(a1-3)]GlcNAc(b1-3)Gal(b1-4)GlcNAc
# Procedure, shortened: as §1
# [33] = target: Neu5Ac(a2-3)Gal(b1-4)[Fuc(a1-3)]GlcNAc(b1-3)Gal(b1-4)[Fuc(a1-3)]GlcNAc(b1-3)Gal(b1-4)[Fuc(a1-3)]GlcNAc
# Procedure, shortened: as §1
# [34] = target: Neu5Ac(a2-3)Gal(b1-4)[Fuc(a1-3)]GlcNAc(b1-3)GalNAc
# Procedure, shortened: as §1
# [35] = target: Neu5Ac(a2-3)Gal(b1-4)[Fuc(a1-3)]GlcNAc(b1-6)[Gal(b1-3)]GalNAc
# Procedure, shortened: as §1
# [36] = target: Neu5Ac(a2-3)Gal(b1-4)[Fuc(a1-3)]GlcNAc(b1-6)[Neu5Ac(a2-3)Gal(b1-3)]GalNAc
# Procedure, shortened: as §1
# [37] = target: Neu5Ac(a2-3)Gal(b1-4)[Fuc(a1-3)]GlcNAc6S
# Procedure, shortened: as §1
# [38] = target: Neu5Ac(a2-3)Gal6S(b1-4)GlcNAc
# Procedure, shortened: as §1
binder,measurement,setting,value
B1,glycan array binding signal (z-score),[1],-0.132
same,glycan array binding signal (z-score),[2],-0.084
same,glycan array binding signal (z-score),[3],-0.098
same,glycan array binding signal (z-score),[4],-0.184
same,glycan array binding signal (z-score),[5],-0.111
same,glycan array binding signal (z-score),[6],-0.195
same,glycan array binding signal (z-score),[7],-0.154
same,glycan array binding signal (z-score),[8],-0.195
same,glycan array binding signal (z-score),[9],-0.18
same,glycan array binding signal (z-score),[10],-0.003
same,glycan array binding signal (z-score),[11],-0.186
same,glycan array binding signal (z-score),[12],-0.197
same,glycan array binding signal (z-score),[13],-0.194
same,glycan array binding signal (z-score),[14],-0.19
same,glycan array binding signal (z-score),[15],0.035
same,glycan array binding signal (z-score),[16],-0.039
same,glycan array binding signal (z-score),[17],-0.187
same,glycan array binding signal (z-score),[18],-0.187
same,glycan array binding signal (z-score),[19],-0.195
same,glycan array binding signal (z-score),[20],-0.073
same,glycan array binding signal (z-score),[21],-0.159
same,glycan array binding signal (z-score),[22],-0.181
same,glycan array binding signal (z-score),[23],-0.18
same,glycan array binding signal (z-score),[24],-0.151
same,glycan array binding signal (z-score),[25],-0.162
same,glycan array binding signal (z-score),[26],-0.172
same,glycan array binding signal (z-score),[27],-0.189
same,glycan array binding signal (z-score),[28],-0.18
same,glycan array binding signal (z-score),[29],-0.183
same,glycan array binding signal (z-score),[30],-0.164
same,glycan array binding signal (z-score),[31],-0.158
same,glycan array binding signal (z-score),[32],0.013
same,glycan array binding signal (z-score),[33],-0.039
same,glycan array binding signal (z-score),[34],-0.166
same,glycan array binding signal (z-score),[35],-0.151
same,glycan array binding signal (z-score),[36],-0.078
same,glycan array binding signal (z-score),[37],-0.194
same,glycan array binding signal (z-score),[38],-0.155

# From the supplement of paper PMC8728848
